{"source": "PubChem BioAssay AID504845", "about": "(National Center for Advancing Translational Sciences (NCATS), 2011)", "note": "“And” between values parts separate entries of the source, which are not always exact repeats. Equal entries are not always repeated. The campaign covered roughly 390,000 compounds. About 150 (0.038%) were called active. Inconclusive means that the source gave no clear call. Such entries were picked first, then a sample of the others. The call rests on the fitted dose curve; in most records, active means well fitted inhibition curve with a large enough effect; inconclusive means small, poorly fitted or top-dose-only effect; inactive means no such curve, though single readings can be large or run the other way. Potencies of inconclusive entries are doubtful fits and often do not repeat. On the % scale 0 is the no-effect control and ±100 the full control effect; potency means the concentration at half of the fitted maximal effect; tags describe the fitted curve by direction and shape."}
{"target": "Regulator of G-protein signaling 4 (Homo sapiens) (UniProt P49798)", "sequence (P49798 whole entry, looked up)": "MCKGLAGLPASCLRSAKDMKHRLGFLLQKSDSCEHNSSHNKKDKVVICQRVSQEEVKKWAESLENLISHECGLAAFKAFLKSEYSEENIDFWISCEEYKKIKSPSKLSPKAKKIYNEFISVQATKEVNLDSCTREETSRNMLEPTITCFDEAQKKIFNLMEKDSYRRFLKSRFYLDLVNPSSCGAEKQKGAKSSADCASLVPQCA", "experiment": "Inhibitors of Regulator of G Protein Signaling (RGS) 4: qHTS; further: nearly all actives have a fitted effect of over 75% in size", "details": "Transcreener GDP fluorescence polarization, RGS4-accelerated GTP hydrolysis; series mostly up to 114 µM; activity change, negative = inhibition: at the top concentration", "summary_of_the_method": "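MLSMR compounds (23 nl, pin-transferred) preincubated 10 min at room temperature with a 500nM (2x) first reagent, then RGS4 at 900nM (2x) plus Transcreener GDP mix added; fluorescence polarization (620/688 nm) read before and after 90 min at 30 °C.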"}
{"smiles": "CCOC(=O)c1sc(=S)n2c1[nH]c(=O)c1ccc(C(=O)OC)cc12", "Potency": "inconclusive: 79.4 µM [inhibitor, partial curve, poor fit]"}
{"smiles": "Cc1cc(C)c2nc(-c3ccco3)cc(C(=O)O)c2c1", "Potency": "inconclusive: 100 µM [inhibitor, single point]"}
{"smiles": "O=C(Nc1cccc(-c2nc3cccnc3s2)c1)c1ccc(Cl)nc1", "Potency": "inconclusive: 39.8 µM [inhibitor, partial curve, poor fit]"}
{"smiles": "CC(=O)c1ccc(N=Nc2ccc(N(C)C)cc2)cc1", "activity change, negative = inhibition": "inactive: -0.081%"}
{"smiles": "Cc1c(Cl)cccc1-c1ccc(C(=O)N2CCN(c3ccc([N+](=O)[O-])cc3)CC2)o1", "Potency": "inconclusive: 89.1 µM [inhibitor, single point]"}
{"smiles": "Cc1cccc(OCc2ccc(-c3nc(C#N)c(N4CCC(C(N)=O)CC4)o3)o2)c1", "activity change, negative = inhibition": "inactive: -4.93%"}
{"smiles": "COc1ccc(Br)cc1Cn1nnc(C(=O)Nc2ccc3c(c2)OCCO3)c1N", "activity change, negative = inhibition": "inactive: 15.8%"}
{"smiles": "Cn1c(C(=O)OCC(=O)NCc2ccco2)cc2sccc21", "activity change, negative = inhibition": "inactive: -39.7%"}
{"smiles": "Cc1ccc(Cn2c(C(C)Nc3nc(-c4ccc(C)cc4)cs3)nc3cc(Cl)c(Cl)cc32)cc1", "note": "(stereo unspecified)", "Potency": "inconclusive: 35.5 µM [inhibitor, full curve, poor fit]"}
{"smiles": "Cc1oc(C)c2c(=O)ccc3c(c12)OC(N)=C(C#N)C3c1ccccc1", "note": "(stereo unspecified)", "Potency": "inconclusive: 44.7 µM [inhibitor, partial curve, poor fit]"}
{"smiles": "CN(C)c1ccc(-c2ccc(C3C4C=CCCC4(C)C(=O)N3Cc3ccccc3)c(F)c2)cc1", "note": "(stereo unspecified)", "activity change, negative = inhibition": "inactive: -28.8%"}
{"smiles": "O=C(COc1cccc(Cl)c1)NNC(=S)Nc1ccccc1", "Potency": "inconclusive: 100 µM [inhibitor, partial curve, poor fit]"}
{"smiles": "O=C(O)C1C2C=CC(O2)C1C(=O)Nc1ccccc1C(F)(F)F", "note": "(stereo unspecified)", "Potency": "inconclusive: 39.8 µM [inhibitor, partial curve, poor fit]"}
{"smiles": "CC(C)c1onc(C(=O)N2CCN(c3ccc(F)cc3)CC2)c1[N+](=O)[O-]", "activity change, negative = inhibition": "inactive: -34.9% [at 56.9 µM]"}
{"smiles": "CN1CCc2c(sc(/N=C/c3c[nH]c4ccccc34)c2C#N)C1", "activity change, negative = inhibition": "inactive: -21.8%"}
{"smiles": "Cc1cc(C(=O)OCC(=O)Nc2ccc(F)c(F)c2F)c(C)o1", "Potency": "inconclusive: 20 µM [inhibitor, full curve, poor fit]"}
{"smiles": "O=C(CCc1[nH]c2ccccc2c1Sc1ccccc1)N(CCO)CCO", "Potency": "inconclusive: 70.8 µM [inhibitor, partial curve, poor fit]"}
{"smiles": "CCc1ccc(C(C)NC(=S)NC2CCCCC2)cc1", "note": "(stereo unspecified)", "activity change, negative = inhibition": "inactive: -23%"}
{"smiles": "O=C(O)c1cccc2cccnc12", "activity change, negative = inhibition": "inactive: -14.8% [at 11.4 µM]"}
{"smiles": "O=C(Nc1cccc(O)c1)c1ccc2c(c1)C(=O)N(Cc1ccco1)C2=O", "activity change, negative = inhibition": "inactive: -26.4%"}
{"smiles": "Clc1ccccc1-c1nn2c(-c3cc(-c4ccccc4)n[nH]3)nnc2s1", "Potency": "inconclusive: 70.8 µM [inhibitor, single point]"}
{"smiles": "O=[N+]([O-])c1ccc(O)c2cccnc12", "activity change, negative = inhibition": "inactive: 12.9%"}
{"smiles": "Cc1ccc(/C=c2\\sc3nc(-c4ccco4)nn3c2=O)o1", "activity change, negative = inhibition": "inactive: -37.3% [at 11.4 µM]"}
{"smiles": "COc1ccc(S(=O)(=O)N(CC(=O)NC2CC3CCC2C3)c2ccccc2OC)cc1", "note": "(stereo unspecified)", "Potency": "inconclusive: 28.2 µM [inhibitor, full curve, poor fit]"}
{"smiles": "NC(=O)c1c(NC(=O)c2noc3c2CCCC3)sc2c1CCCC2", "Potency": "inconclusive: 17.8 µM [inhibitor, full curve, poor fit]"}
{"smiles": "CCOC(=O)C1=C(c2ccccc2)N=c2s/c(=C\\c3ccco3)c(=O)n2C1c1cccs1", "note": "(stereo unspecified)", "Potency": "inconclusive: 39.8 µM [inhibitor, partial curve, poor fit]"}
{"smiles": "O=c1c(C(c2ccc(O)cc2)c2c(O)nc3n(c2=O)CCCS3)c(O)nc2n1CCCS2", "Potency": "inconclusive: 44.7 µM [inhibitor, partial curve, poor fit]"}
{"smiles": "Cc1ccc(Nc2cc(C(=O)NC3CCCC3)c3ccccc3n2)cc1C", "activity change, negative = inhibition": "inactive: -4%"}
{"smiles": "Cc1ccc(C)c(-n2sc3ccc(F)cc3c2=O)c1", "activity change, negative = inhibition": "inactive: -142%"}
{"smiles": "O=C1c2ccccc2S(=O)(=O)N1CC1CC(c2ccccc2)=NO1", "note": "(stereo unspecified)", "activity change, negative = inhibition": "inactive: 29.9%"}
{"smiles": "Cc1[nH]n(-c2nc(-c3ccc(Cl)cc3)cs2)c(=O)c1N=Nc1ccc(O)cc1", "Potency": "inconclusive: 50.1 µM [inhibitor, partial curve, poor fit]"}
{"smiles": "O=c1/c(=C\\c2cc([N+](=O)[O-])cc([N+](=O)[O-])c2O)sc2nc3ccccc3n12", "Potency": "inconclusive: 50.1 µM [inhibitor, partial curve, poor fit]"}
{"smiles": "CCOC(=O)CC(NC(=O)c1cc2cccc(OC)c2oc1=O)c1ccc(OC)cc1", "note": "(stereo unspecified)", "activity change, negative = inhibition": "inactive: -0.497%"}
{"smiles": "O=C(Nc1ccccc1)c1ccc2nc(-c3ccco3)c(-c3ccco3)nc2c1", "Potency": "inconclusive: 44.7 µM [inhibitor, partial curve, poor fit] and inconclusive: 39.8 µM [inhibitor, partial curve, poor fit]"}
{"smiles": "CCOC(=O)C1CCN(CC(C)(C)NS(=O)(=O)c2ccc(C)cc2)CC1", "activity change, negative = inhibition": "inactive: -14.1%"}
{"smiles": "O=C(CCCNC(=O)c1ccc(Cl)cc1)NCc1ccc(F)cc1", "Potency": "inconclusive: 89.1 µM [inhibitor, partial curve, poor fit]"}
{"smiles": "Cc1ccc(S(=O)(=O)NCC(=O)N2CCC(C)CC2)cc1", "Potency": "inconclusive: 70.8 µM [inhibitor, single point]"}
{"smiles": "Cc1ccc(OCc2nnc(NC(=O)c3ccco3)s2)cc1", "Potency": "inconclusive: 89.1 µM [inhibitor, single point]"}
{"smiles": "O=C(NC(=S)Nc1ccc(CN2CCOCC2)cc1)c1cccc([N+](=O)[O-])c1", "Potency": "inconclusive: 79.4 µM [inhibitor, partial curve, poor fit]"}
{"smiles": "COC(=O)C1CCN(Cc2cn(-c3ccccc3)nc2-c2ccc3c(c2)OCO3)CC1", "activity change, negative = inhibition": "inactive: -13.3%"}
{"smiles": "OCCn1c(CSc2nnc(-c3ccco3)n2-c2ccccc2)nc2ccc(Cl)cc21", "activity change, negative = inhibition": "inactive: -20.9%"}
{"smiles": "CCC(CC)c1nnc(NC(=O)C2CC(=O)N(CCc3ccc(F)cc3)C2)s1", "note": "(stereo unspecified)", "Potency": "inconclusive: 79.4 µM [inhibitor, partial curve, poor fit]"}
{"smiles": "COc1cc(Cl)c(C)cc1NC(=O)CSc1cc(Cl)ccc1Cl", "Potency": "inconclusive: 100 µM [inhibitor, partial curve, poor fit]"}
{"smiles": "Cc1[nH]n(-c2ccccc2)c(=O)c1/C=N/c1nn[nH]n1", "Potency": "inconclusive: 28.2 µM [inhibitor, full curve, poor fit]"}
{"smiles": "Cc1ccc(-n2c(N)c(C(=O)N3CCN(C)CC3)sc2=S)cc1", "Potency": "inconclusive: 50.1 µM [inhibitor, partial curve, poor fit]"}
{"smiles": "CCOc1ccc(Nc2ccnc3cc(Cl)ccc23)cc1", "activity change, negative = inhibition": "inactive: -10.2%"}
{"smiles": "CCCCc1nc(C(N)=O)c2[nH]c(=O)n(-c3ccc(OC)cc3OC)c2n1", "Potency": "inconclusive: 79.4 µM [inhibitor, partial curve, poor fit]"}
{"smiles": "CN(C)S(=O)(=O)c1cccc(C(=O)Nc2cc(S(=O)(=O)N3CCOCC3)ccc2N2CCCC2)c1", "Potency": "inconclusive: 28.2 µM [inhibitor, full curve, poor fit]"}
{"smiles": "COc1ccc(-c2c3c([nH]c(=S)c2C#N)CCC3)cc1", "Potency": "inconclusive: 89.1 µM [inhibitor, partial curve, poor fit]"}
{"smiles": "O=C(Nc1ccn(Cc2c(F)c(F)cc(F)c2F)n1)c1ccc(COc2ccccc2Cl)cc1", "activity change, negative = inhibition": "inactive: -5.9%"}
{"smiles": "Cn1c(=O)[nH]c(=O)c2c1nc(NCCCO)n2Cc1ccc(F)cc1", "Potency": "inconclusive: 89.1 µM [inhibitor, single point]"}
{"smiles": "Cc1ccc(C(=O)NCC(=O)OCC(=O)NCCc2ccccc2)s1", "Potency": "inconclusive: 70.8 µM [inhibitor, partial curve, poor fit]"}
{"smiles": "CC(=O)Nc1nc(=O)c2ccccc2s1", "Potency": "inconclusive: 39.8 µM [inhibitor, partial curve, poor fit]"}
{"smiles": "COc1ccc(-n2nnc3c(=O)n(CC(=O)Nc4ccc5c(c4)OCCO5)cnc32)cc1OC", "Potency": "inconclusive: 89.1 µM [inhibitor, single point]"}
{"smiles": "O=C(O)C(S)C(S)C(=O)O", "note": "(stereo unspecified)", "Potency": "inconclusive: 28.2 µM [inhibitor, full curve, poor fit]"}
{"smiles": "COc1ccc(C2/C(=C(/O)c3ccccc3)C(=O)C(=O)N2C)cc1", "note": "(stereo unspecified)", "Potency": "inconclusive: 89.1 µM [inhibitor, single point]"}
{"smiles": "CCN(CC)CCOC(=O)c1ccc(N/C=C(/C#N)c2nc(-c3cc4ccccc4oc3=O)cs2)cc1", "Potency": "inconclusive: 100 µM [inhibitor, partial curve, poor fit]"}
{"smiles": "COc1ccccc1C1(CCNC(C)c2cccs2)CCOC(C(C)C)C1", "note": "(stereo unspecified)", "activity change, negative = inhibition": "inactive: -4.92%"}
{"smiles": "CCC(c1nnnn1CCOC)N(Cc1ccc(C)cc1)Cc1cc2cc(OC)ccc2[nH]c1=O", "note": "(stereo unspecified)", "activity change, negative = inhibition": "inactive: -22.8%"}
{"smiles": "Cc1ccsc1C1NC(=O)c2c(sc3c2CCCC3)N1", "note": "(stereo unspecified)", "Potency": "inconclusive: 28.2 µM [inhibitor, full curve, poor fit]"}
{"smiles": "Cc1cc(C)cc(N2C(=O)CC(Sc3ccccc3C(=O)O)C2=O)c1", "note": "(stereo unspecified)", "activity change, negative = inhibition": "inactive: -39.4%"}
{"smiles": "COc1ccc(/C=C2\\SC(=O)NC2=S)cc1OC", "Potency": "inconclusive: 17.8 µM [inhibitor, full curve, poor fit]"}
{"smiles": "C#CC1(O)CCC2C3CCC4=C(CCC(=O)C4)C3CCC21C", "note": "(stereo unspecified)", "activity change, negative = inhibition": "inactive: -4.9%"}
{"smiles": "CC1CCN(S(=O)(=O)c2ccc3c(c2)N(C)C(=O)CC(=O)N3C)CC1", "Potency": "inconclusive: 63.1 µM [inhibitor, partial curve, poor fit]"}
{"smiles": "COc1ccc(N2CCN(C3CC(=O)N(Cc4ccc(N5CCCC5=O)cc4)C3=O)CC2)cc1", "note": "(stereo unspecified)", "Potency": "inconclusive: 79.4 µM [inhibitor, single point]"}
{"smiles": "COc1ccc(N2CSC3=C(C#N)C(c4ccc(OC)c(OC)c4)CC(=O)N3C2)c(OC)c1", "note": "(stereo unspecified)", "Potency": "inconclusive: 17.8 µM [inhibitor, full curve, poor fit]"}
